Reference: article PMC12274619
These are yes or no findings as the source states them, for the method shown. In cells and extracts the contact can be indirect. Some binding calls cover weakened binding; strength is not graded here. For some of these results: Sequences can lack the tags named with a protein.

By UniProt entry, the sequences of proteins in these tests, tags left out. Where a name states a change or a piece, a line headed by the entry shows the natural chain unless it says otherwise. Residues count along the entry.
UniProt A2AJ88: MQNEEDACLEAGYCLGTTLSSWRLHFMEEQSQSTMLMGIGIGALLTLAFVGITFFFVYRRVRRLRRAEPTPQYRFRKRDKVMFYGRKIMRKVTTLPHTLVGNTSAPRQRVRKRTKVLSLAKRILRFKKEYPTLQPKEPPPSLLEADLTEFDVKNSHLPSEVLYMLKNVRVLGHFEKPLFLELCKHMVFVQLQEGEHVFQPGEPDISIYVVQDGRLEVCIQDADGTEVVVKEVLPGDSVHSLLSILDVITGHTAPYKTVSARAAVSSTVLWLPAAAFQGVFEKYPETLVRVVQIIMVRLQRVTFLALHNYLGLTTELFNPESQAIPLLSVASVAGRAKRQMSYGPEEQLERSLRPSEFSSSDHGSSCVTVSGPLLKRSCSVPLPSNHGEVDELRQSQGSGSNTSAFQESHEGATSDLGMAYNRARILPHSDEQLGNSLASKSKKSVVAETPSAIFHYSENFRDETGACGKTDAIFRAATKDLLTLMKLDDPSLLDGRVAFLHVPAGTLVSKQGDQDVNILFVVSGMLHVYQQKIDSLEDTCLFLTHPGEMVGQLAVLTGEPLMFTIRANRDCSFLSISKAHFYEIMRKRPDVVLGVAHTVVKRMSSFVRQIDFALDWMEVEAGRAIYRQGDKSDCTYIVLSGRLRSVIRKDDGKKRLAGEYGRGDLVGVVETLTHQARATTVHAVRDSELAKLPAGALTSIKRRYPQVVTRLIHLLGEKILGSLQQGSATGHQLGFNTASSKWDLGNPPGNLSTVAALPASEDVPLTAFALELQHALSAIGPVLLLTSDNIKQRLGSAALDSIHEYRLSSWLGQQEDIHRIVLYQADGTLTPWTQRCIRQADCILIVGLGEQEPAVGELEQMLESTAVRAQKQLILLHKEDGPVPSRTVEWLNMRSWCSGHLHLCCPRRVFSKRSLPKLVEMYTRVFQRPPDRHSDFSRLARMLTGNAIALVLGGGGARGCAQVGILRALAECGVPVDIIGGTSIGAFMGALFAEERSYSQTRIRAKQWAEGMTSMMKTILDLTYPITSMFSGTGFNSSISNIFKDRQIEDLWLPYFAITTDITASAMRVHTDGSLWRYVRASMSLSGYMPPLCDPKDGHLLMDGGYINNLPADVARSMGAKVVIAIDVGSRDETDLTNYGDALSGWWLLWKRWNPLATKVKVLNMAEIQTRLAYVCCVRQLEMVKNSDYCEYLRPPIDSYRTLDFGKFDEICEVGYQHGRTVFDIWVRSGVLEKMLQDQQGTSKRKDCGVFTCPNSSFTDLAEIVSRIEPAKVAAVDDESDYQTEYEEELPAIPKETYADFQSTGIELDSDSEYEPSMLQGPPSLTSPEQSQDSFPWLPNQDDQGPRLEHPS
HA-PNPLA7 N-terminal region (aa1-941): residues 1-941 of A2AJ88
HA-PNPLA7 truncation aa36-1352: residues 36-1352 of A2AJ88
HA-PNPLA7 C-terminal region (aa942-1352): residues 942-1352 of A2AJ88

Assays:
[1] = biological target: T1, endogenous Parkin (mouse (endogenous in iWAT)) (UniProt Q9WVS6); test: co-IP; iWAT total lysates of Pnpla7^Tg mice immunoprecipitated with anti-Parkin or anti-Flag antibodies overnight at 4 °C, protein A/G beads; IP buffer 50 mM Tris-HCl pH 7.5, 1 mM EGTA, 1 mM EDTA, 1% Triton X-100, 150 mM NaCl, 2 mM DTT; immunoblot
T1 sequence: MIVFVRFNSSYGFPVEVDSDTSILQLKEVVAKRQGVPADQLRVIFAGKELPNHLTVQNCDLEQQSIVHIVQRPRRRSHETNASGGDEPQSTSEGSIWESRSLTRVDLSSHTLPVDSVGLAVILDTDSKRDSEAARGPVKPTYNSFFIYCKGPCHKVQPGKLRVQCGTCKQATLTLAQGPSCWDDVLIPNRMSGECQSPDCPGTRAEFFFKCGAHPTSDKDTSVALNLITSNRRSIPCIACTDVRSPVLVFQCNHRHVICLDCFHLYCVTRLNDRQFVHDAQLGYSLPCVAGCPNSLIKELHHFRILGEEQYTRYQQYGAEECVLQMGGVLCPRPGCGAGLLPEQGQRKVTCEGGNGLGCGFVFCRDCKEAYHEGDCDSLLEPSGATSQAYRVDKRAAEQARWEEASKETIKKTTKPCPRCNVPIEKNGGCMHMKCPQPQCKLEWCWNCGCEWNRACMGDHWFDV

Flag-Parkin = biological target: T2, Flag-Parkin (UniProt Q9WVS6); test: co-IP; HEK293T cells transfected with Flag-Parkin and HA-PNPLA7 truncations for 48 h; total lysates immunoprecipitated with anti-HA or anti-Flag antibodies; IP buffer 50 mM Tris-HCl pH 7.5, 1% Triton X-100, 150 mM NaCl; immunoblot
T2 sequence: T1 sequence

[2] = biological target: T1, endogenous Parkin (mouse (endogenous in iWAT)); test: co-IP; iWAT lysate of wild-type mice, endogenous proteins; mice injected with saline or CL 316,243 (1 mg/kg) for 30 min; IP buffer; immunoblot
[3] = biological target: T1, endogenous Parkin (mouse (endogenous in iWAT)); test: co-IP; lysate of in vitro differentiated inguinal adipocytes of wild-type mice, endogenous proteins; with or without CL 316,243 (1 μM) for 30 min; IP buffer; immunoblot

Row | Substance | binding (Flag-Parkin) | also measured
1 | Flag-PNPLA7 (adipose-specific transgene of Pnpla7^Tg mice) (from UniProt A2AJ88 1-1352) | – | binding [1]: binds
2 | HA-PNPLA7 C-terminal region (aa942-1352) (from UniProt A2AJ88-1 942-1352) (domain or fragment) | binds | –
3 | HA-PNPLA7 N-terminal region (aa1-941) (from UniProt A2AJ88-1 1-941) (domain or fragment) | no binding | –
4 | HA-PNPLA7 full length (aa1-1352) (from UniProt A2AJ88-1 1-1352) | binds | –
5 | HA-PNPLA7 truncation aa36-1352 (from UniProt A2AJ88-1 36-1352) (domain or fragment) | binds | –
6 | endogenous PNPLA7 (from UniProt A2AJ88 1-1352) | – | binding [2]: binds; binding [3]: binds
